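Cells were grown in 96-well plates and exposed to each compound for 48 hours at five concentrations; endpoints were interpolated linearly between bracketing concentrations, or set to the highest concentration if not reached. GI50 = concentration required for 50% inhibition of growth.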 Calls of active or inactive are those of the source. Cut-off read from the data, not from the text of the source: active = GI50 up to about 1.1 µM and inactive = higher.

This assay deals with NCI-H322M. Briefly: NCI tumour cell line growth inhibition, 48 h.
With `CC1(C)CN=C(Nc2ccc(F)c(Cl)c2)S1`, the GI50 is inactive: > 100 µM.

In the case of `CCOc1cc2c(c(OCC)c1O)CC[C@@H]1[C@@H]2CC[C@]2(C)[C@@H](O)CC[C@@H]12`, the GI50 was inactive: 5.71 µM.

For `O=C1CCC(Cc2ccc(Cl)cc2Cl)C(=O)N1` (centres undefined), the GI50 was inactive: > 100 µM.

With `NNC(=O)C(=O)N/N=C1\CCC(=O)CC1C(=O)CCC(=O)Nc1ccc(Cl)cc1` (centres undefined), the GI50 is inactive: > 100 µM.

Consider `CCCCCCc1cc2cc(-c3cn4ccccc4n3)c(=O)oc2cc1O`, for which the GI50 is inactive: 36 µM.

Consider `COc1cc(CC(C(=O)O)C(=O)O)c(OC)cc1CC(C(=O)O)C(=O)O`, for which the GI50 was inactive: > 100 µM.

As to `NCc1c(C(N)=O)ncn1Cc1ccccc1`, the GI50 is inactive: > 100 µM.

Turning to `COc1cc2c3cc1Oc1c(OC)c(OC)cc4c1C(Cc1ccc(O)c(c1)-c1cc(ccc1OC)CC3N(C)CC2)N(C)CC4` (centres undefined), the GI50 was inactive: 23.9 µM.

For the compound `CCOC(=O)C(=O)Nc1cccc(Cl)c1C`, the GI50 was inactive: > 100 µM.

Regarding `CC(C)(/C=N/O)/[N+]([O-])=C/c1ccccc1`, the GI50 was inactive: > 100 µM.

On to `CCc1c2c([nH]c(=S)c1C#N)CCC2`, for which the GI50 is inactive: > 100 µM.

Take `COc1ccc(/C=C(\C(C)=O)C(=O)Nc2ccccc2)cc1`: the GI50 was inactive: > 100 µM.

As to `CCOP(=O)(OCC)C(F)(F)c1ccc(CC(NC(=O)OC(C)(C)C)C(=O)O)cc1` (centres undefined), the GI50 was inactive: > 10 µM.

Consider `O=[N+]([O-])c1ccc(O)c(/C=N/NC(=S)N2CCCCC2)c1`, for which the GI50 was inactive: 1.26 µM.

`COc1cc(C=O)cc(/C=N/n2c3ccccc3c3ccccc32)c1O`: the GI50 was inactive: 19.6 µM.

`O=C1C=CC(=O)c2ccc(=O)ccc21`: the GI50 was inactive: 16.5 µM.

In the case of `C/C(CC(O)(C(F)(F)F)C(F)(F)F)=N\NC(N)=O`, the GI50 is inactive: > 10 µM.

`CCCCCCCC(CC(=O)NC(CO)C(=O)NC(CO)CC(C)C)OC(=O)CC(CCCCCCC)OC(=O)CC(CCCCCCC)OC1OC(C)C(O)C(OC2OC(C)C(O)C(O)C2OC(C)=O)C1O` (centres undefined): the GI50 is inactive: 11.3 µM.

For the compound `N#Cc1c(N)nc2c(/N=N\c3ccccc3)c(N)nn2c1Nc1ccccc1`, the GI50 is inactive: 8.15 µM.

Consider `S=C(NCCc1ccccn1)N/N=C/c1ccccn1`, for which the GI50 is active: < 0.018 µM.

For `O=C(c1ccc(Cl)cc1)N(C(=S)N1CCN(c2ccccn2)CC1)C1CCCCC1`, the GI50 was inactive: 45.3 µM.

As to `CC(C)(C)OC(=O)NCCCCC(N)NC(=O)c1ccccc1` (centres undefined), the GI50 was inactive: > 100 µM.

For `C=C1C=CC2(Br)OC3CC(C)(Cl)C(Br)CC13C2(C)C` (centres undefined), the GI50 was inactive: 31.4 µM.

Regarding `COc1ccc(C(=O)C(c2ccc(OC)cc2)C2(O)C(=O)Nc3ccc([N+](=O)[O-])cc32)cc1` (centres undefined), the GI50 was inactive: > 100 µM.

For the compound `CC(=O)OC1C2CCC3C(C)(O)C4CC(O)C(C)(C)C4(O)C(O)CC13CC2(C)O` (centres undefined), the GI50 is inactive: > 100 µM.

With `N#Cc1cccc(-n2[nH]c(=O)ccc2=O)c1`, the GI50 was inactive: > 100 µM.

With `CCOC(=O)C(C(=S)SC)c1nn2c(=O)cc(C)nc2s1` (centres undefined), the GI50 is inactive: 20.6 µM.

For `CCOc1ccc(N/C(Cl)=C(Cl)\C(=C(\Nc2ccc(OCC)cc2)n2nnc3ccccc32)[N+](=O)[O-])cc1`, the GI50 is inactive: 28.8 µM.

In the case of `C(CCCCc1nnc(N2CCCCC2)o1)CCCc1nnc(N2CCCCC2)o1`, the GI50 was inactive: > 100 µM.

Take `CCOC(=O)c1c(-c2cccc(Cl)c2)c(C(=O)OC)c(C)c2sc(C=O)nc12`: the GI50 was inactive: 14.9 µM.

In the case of `Cc1nc2sccn2c1C(=O)NC(=O)Nc1ccc(Cl)cc1`, the GI50 was inactive: > 100 µM.

On to `COc1ccccc1OC(=O)/C=C/c1ccccc1`, for which the GI50 was inactive: > 100 µM.

For the compound `C=C(C(=O)O)[C@@H]1C[C@@H]2O[C@H]1[C@@H](O)[C@@H](C)CCCC(C)=CCC[C@@]2(C)O`, the GI50 was inactive: > 100 µM.

As for `NCCOc1ccc(/C(=C(/Cl)c2ccccc2)c2ccccc2)cc1`, the GI50 is inactive: 14.3 µM.

Turning to `CC1(C)O[C@@H](CP(c2ccccc2)c2ccccc2)[C@H](CP(c2ccccc2)c2ccccc2)O1`, the GI50 is inactive: 12.2 µM.

For `CCOC(=O)c1c(-c2cccc3ccccc23)c(C#N)c(=S)n(C2OC(COC(C)=O)C(OC(C)=O)C(OC(C)=O)C2OC(C)=O)c1C` (centres undefined), the GI50 was inactive: > 100 µM.

`O=C(Cc1nc2ccccc2s1)C(=O)Nc1cccc(C(F)(F)F)c1`: the GI50 is inactive: > 100 µM.

As for `CC1(C)O[C@@H]2[C@@H](COC(=O)c3ccccc3)C[C@@H](C#N)[C@@H]2O1`, the GI50 is inactive: > 100 µM.

Consider `O=C1C(NCCc2cc(Br)c(O)c(Br)c2)=CC(=O)c2ncccc21`, for which the GI50 is inactive: 2.38 µM.

Turning to `CCOP(=O)(C=C=C1CCC2[C@@H]3CCc4cc(OC)ccc4C3CC[C@]12C)OCC` (some centres undefined), the GI50 was inactive: 16.7 µM.

As for `C=C(Cl)C(Cl)(CBr)CCCC(C)C` (centres undefined), the GI50 is inactive: 14.2 µM.

As for `CS(=O)(=O)c1ccc(-c2cc(-c3ccc(S(C)(=O)=O)cc3)[n+](-c3cc(-c4ccccc4)c([O-])c(-c4ccccc4)c3)c(-c3ccc(S(C)(=O)=O)cc3)c2)cc1`, the GI50 is inactive: > 100 µM.

`CC(=O)Nc1[nH]c(=O)[nH]c(=O)c1N(C(C)=O)C(C)=O`: the GI50 was inactive: > 100 µM.

With `C=CCN1CCC(OC(=O)C(O)(/C=C\CC)C2CCCC2)CC1` (centres undefined), the GI50 was inactive: > 100 µM.

As to `COC1CCC(OS(C)(=O)=O)CO1` (centres undefined), the GI50 was inactive: > 100 µM.

With `COC(=O)/C=C(C)/C=C/c1c(C)c(C(C)=O)c(C)n1C`, the GI50 is inactive: > 100 µM.

Consider `O=C(O)c1ccc(S(=O)(=O)c2ccccc2[N+](=O)[O-])cc1`, for which the GI50 was inactive: > 10 µM.

Regarding `Cc1ccc2[nH]c3c(c2c1)C1CCC(C(C)(C)C)CC1C1C(=O)N(c2ccc4c(c2)OCO4)C(=O)C31` (centres undefined), the GI50 is inactive: 5.06 µM.

In the case of `CC1(C)OC([C@H](O)CO)C([C@H]2NCCS2)O1` (some centres undefined), the GI50 is inactive: > 100 µM.

Take `CN1C(=O)C(C)(C)C2(SC(C)(C)C2(C)C)N(C)C1=S` (centres undefined): the GI50 is inactive: > 100 µM.

In the case of `CCOC(=O)c1c(N2CCOCC2)[nH]c(=O)c(C(c2ccc(OC)cc2)c2c(O)c(C(=O)OCC)c(N3CCOCC3)[nH]c2=O)c1O`, the GI50 is inactive: > 100 µM.

For the compound `Cc1ccc(Nc2nc(N)nc3c2ncn3C2OC(CO)C(O)C2O)cc1` (centres undefined), the GI50 is inactive: > 100 µM.

Take `CCOC(=O)C1=C(C)N(c2ccc(Cl)cc2)C2(O)C=CC(O)=C3C(=O)c4ccccc4C(=O)C312` (centres undefined): the GI50 was inactive: 14.7 µM.

Consider `OC1CC(O)O[C@H](c2ccccc2)C1` (some centres undefined), for which the GI50 is inactive: > 100 µM.

Consider `COC(=O)[C@@]1(O)CC(C)C=C1C=O` (some centres undefined), for which the GI50 is inactive: > 100 µM.

`C=C1CC2OC(=O)C(=C)C2C(O)C2C(=C)CCC12` (centres undefined): the GI50 was inactive: 11.9 µM.

With `O=C1c2ccsc2C(=O)c2sc(CO)cc21`, the GI50 was inactive: 2.17 µM.

`NCC1OC(OC2C(N)CC(N)C(O)C2OC2OC(CO)C(O)C2O)C(N)C(O)C1O` (centres undefined): the GI50 was inactive: > 50 µM.

Turning to `COc1cc(/C=C\c2ccc(Cl)cc2)cc(OC)c1OC`, the GI50 is active: 0.436 µM.
